In US20020155443A1, “Metal binding DNA interactive compounds” (priority 2000, published 2002):

Test system: Form I DNA (plasmid pGAD424; Li.DNA, Na.DNA, K.DNA)
Details: for relative efficiency of cleavage of Li.DNA, Na.DNA and K.DNA: pH 7.4 phosphate, 20 mM alkali metal ion
[1] = Na.DNA and Li.DNA, 37° C., four days

Compound	relative efficiency of cleavage of Li.DNA, Na.DNA and K.DNA (in words)	other results
O=S1(=O)CC#CCOCCOCCOCCOCC#CC1 [Compound 2.12]	cleaves K.DNA a little more efficiently than it cleaves Li.DNA	–
O=S1(=O)CC#CCOCCOCCOCCOCCOCC#CC1 [Compound 2.46]	equipotent at cleaving Li.DNA and Na.DNA	cleavage of K.DNA (K.DNA, in words): efficient cleavage
O=S1(=O)CC#CCOCCOCCOCCOCCOCCOCC#CC1 [Compound 2.47]	cleaves Na.DNA and K.DNA similarly and with much greater efficiency than it cleaves Li.DNA	–
O=S1(=O)CC#CCOCCOCCOCCOCCOCCOCCOCC#CC1 [Compound 2.48]	cleaves Na.DNA to a slightly greater extent than K.DNA	cleavage of Li.DNA (Li.DNA, in words): cleaved poorly
O=C(OCC1COCCOCCOCCOCCO1)c1cccc(CS(=O)(=O)CC#CCO)c1 (stereo not shown) [Compound 3.1]	more potent cleavers of Na.DNA and K.DNA than Li.DNA	–
O=C(OCC1COCCOCCOCCOCCO1)c1ccc(CS(=O)(=O)CC#CCO)cc1 (stereo not shown) [Compound 3.2]	more potent cleavers of Na.DNA and K.DNA than Li.DNA	–
C1#CCc2cccc3c2-c2c(cccc2OCCOCCOCCOCCO3)CC#C/C=C\1 [Compound 5.3]	–	Form I DNA remaining [1]: no Form I DNA remained; extent of DNA cleavage [1]: extensive
